Measured values: the supplement of paper PMC8728848
The other results are listed elsewhere or left out.

How the values were obtained:
Assay in all cases: glycan array binding signal (z-score within array); higher = stronger binding
Settings in all cases: glycan notation: IUPAC condensed, linker removed
[1] = molecular target: Neu5Ac(a2-3)Gal(b1-3)GlcNAc(b1-2)Man(a1-3)[GlcNAc(b1-4)][Neu5Ac(a2-3)Gal(b1-3)GlcNAc(b1-2)Man(a1-6)]Man(b1-4)GlcNAc(b1-4)GlcNAc
Procedure, shortened: (§1)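 The binding signal is a Z-score computed within each array. Data were drawn from 3228 arrays in the Consortium for Functional Glycomics database, restricted to those with a known protein sequence. Scores were averaged over arrays of the same protein sequence at different concentrations or buffers, and over linkers, and negative values can be taken as non-binding.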

[2] = molecular target: Neu5Ac(a2-3)Gal(b1-3)GlcNAc(b1-2)Man(a1-3)[Neu5Ac(a2-3)Gal(b1-3)GlcNAc(b1-2)Man(a1-6)]Man(b1-4)GlcNAc(b1-4)GlcNAc
Procedure, shortened: as §1

[3] = molecular target: Neu5Ac(a2-3)Gal(b1-3)GlcNAc(b1-3)Gal(b1-3)GlcNAc
Procedure, shortened: as §1

[4] = molecular target: Neu5Ac(a2-3)Gal(b1-3)GlcNAc(b1-3)Gal(b1-4)GlcNAc
Procedure, shortened: as §1

[5] = molecular target: Neu5Ac(a2-3)Gal(b1-3)GlcNAc(b1-3)GalNAc
Procedure, shortened: as §1

[6] = molecular target: Neu5Ac(a2-3)Gal(b1-3)GlcNAc(b1-4)Gal(b1-4)Glc
Procedure, shortened: as §1

[7] = molecular target: Neu5Ac(a2-3)Gal(b1-3)GlcNAc(b1-6)GalNAc
Procedure, shortened: as §1

[8] = molecular target: Neu5Ac(a2-3)Gal(b1-3)GlcNAc6S
Procedure, shortened: as §1

[9] = molecular target: Neu5Ac(a2-3)Gal(b1-3)[Fuc(a1-4)]GlcNAc
Procedure, shortened: as §1

[10] = molecular target: Neu5Ac(a2-3)Gal(b1-3)[Fuc(a1-4)]GlcNAc(b1-3)Gal(b1-3)[Fuc(a1-4)]GlcNAc
Procedure, shortened: as §1

[11] = molecular target: Neu5Ac(a2-3)Gal(b1-3)[Fuc(a1-4)]GlcNAc(b1-3)Gal(b1-4)[Fuc(a1-3)]GlcNAc
Procedure, shortened: as §1

[12] = molecular target: Neu5Ac(a2-3)Gal(b1-3)[GlcNAc(b1-6)]GalNAc
Procedure, shortened: as §1

[13] = molecular target: Neu5Ac(a2-3)Gal(b1-3)[Neu5Ac(a2-6)]GalNAc
Procedure, shortened: as §1

[14] = molecular target: Neu5Ac(a2-3)Gal(b1-3)[Neu5Ac(a2-6)]GlcNAc(b1-3)[Fuc(a1-3)[Gal(b1-4)]GlcNAc(b1-6)]Gal(b1-4)Glc
Procedure, shortened: as §1

[15] = molecular target: Neu5Ac(a2-3)Gal(b1-3)]Neu5Ac(a2-3)Gal(b1-4)]GlcNAc
Procedure, shortened: as §1

Neu5Ac(a2-3)Gal(b1-4)Glc = molecular target: Neu5Ac(a2-3)Gal(b1-4)Glc
Procedure, shortened: as §1

[16] = molecular target: Neu5Ac(a2-3)Gal(b1-4)GlcNAc
Procedure, shortened: as §1

[17] = molecular target: Neu5Ac(a2-3)Gal(b1-4)GlcNAc(b1-2)Man
Procedure, shortened: as §1

[18] = molecular target: Neu5Ac(a2-3)Gal(b1-4)GlcNAc(b1-2)Man(a1-3)[GlcNAc(b1-4)][Neu5Ac(a2-3)Gal(b1-4)GlcNAc(b1-2)Man(a1-6)]Man(b1-4)GlcNAc(b1-4)GlcNAc
Procedure, shortened: as §1

[19] = molecular target: Neu5Ac(a2-3)Gal(b1-4)GlcNAc(b1-2)Man(a1-3)[Neu5Ac(a2-3)Gal(b1-4)GlcNAc(b1-2)Man(a1-6)]Man(b1-4)GlcNAc(b1-4)GlcNAc
Procedure, shortened: as §1

[20] = molecular target: Neu5Ac(a2-3)Gal(b1-4)GlcNAc(b1-2)Man(a1-3)[Neu5Ac(a2-3)Gal(b1-4)GlcNAc(b1-2)Man(a1-6)]Man(b1-4)GlcNAc(b1-4)[Fuc(a1-6)]GlcNAc
Procedure, shortened: as §1

[21] = molecular target: Neu5Ac(a2-3)Gal(b1-4)GlcNAc(b1-2)Man(a1-3)[Neu5Ac(a2-6)Gal(b1-4)GlcNAc(b1-2)Man(a1-6)]Man(b1-4)GlcNAc(b1-4)GlcNAc
Procedure, shortened: as §1

[22] = molecular target: Neu5Ac(a2-3)Gal(b1-4)GlcNAc(b1-2)[Neu5Ac(a2-3)Gal(b1-4)GlcNAc(b1-4)]Man(a1-3)[GlcNAc(b1-4)][Neu5Ac(a2-3)Gal(b1-4)GlcNAc(b1-2)[Neu5Ac(a2-3)Gal(b1-4)GlcNAc(b1-6)]Man(a1-6)]Man(b1-4)GlcNAc(b1-4)GlcNAc
Procedure, shortened: as §1

[23] = molecular target: Neu5Ac(a2-3)Gal(b1-4)GlcNAc(b1-2)[Neu5Ac(a2-3)Gal(b1-4)GlcNAc(b1-4)]Man(a1-3)[GlcNAc(b1-4)][Neu5Ac(a2-3)Gal(b1-4)GlcNAc(b1-4)Man(a1-6)]Man(b1-4)GlcNAc(b1-4)GlcNAc
Procedure, shortened: as §1

[24] = molecular target: Neu5Ac(a2-3)Gal(b1-4)GlcNAc(b1-2)[Neu5Ac(a2-3)Gal(b1-4)GlcNAc(b1-6)]Man(a1-6)[Neu5Ac(a2-3)Gal(b1-4)GlcNAc(b1-2)Man(a1-3)]Man(b1-4)GlcNAc(b1-4)GlcNAc
Procedure, shortened: as §1

[25] = molecular target: Neu5Ac(a2-3)Gal(b1-4)GlcNAc(b1-2)[Neu5Ac(a2-3)Gal(b1-4)GlcNAc(b1-6)]Man(a1-6)[Neu5Ac(a2-3)Gal(b1-4)GlcNAc(b1-2)Man(a1-3)][GlcNAc(b1-4)]Man(b1-4)GlcNAc(b1-4)GlcNAc
Procedure, shortened: as §1

[26] = molecular target: Neu5Ac(a2-3)Gal(b1-4)GlcNAc(b1-3)Gal
Procedure, shortened: as §1

[27] = molecular target: Neu5Ac(a2-3)Gal(b1-4)GlcNAc(b1-3)Gal(b1-3)GlcNAc
Procedure, shortened: as §1

[28] = molecular target: Neu5Ac(a2-3)Gal(b1-4)GlcNAc(b1-3)Gal(b1-4)GlcNAc
Procedure, shortened: as §1

[29] = molecular target: Neu5Ac(a2-3)Gal(b1-4)GlcNAc(b1-3)Gal(b1-4)GlcNAc(b1-2)Man(a1-3)[Neu5Ac(a2-3)Gal(b1-4)GlcNAc(b1-3)Gal(b1-4)GlcNAc(b1-2)Man(a1-6)]Man(b1-4)GlcNAc(b1-4)GlcNAc
Procedure, shortened: as §1

[30] = molecular target: Neu5Ac(a2-3)Gal(b1-4)GlcNAc(b1-3)Gal(b1-4)GlcNAc(b1-3)Gal(b1-4)GlcNAc
Procedure, shortened: as §1

[31] = molecular target: Neu5Ac(a2-3)Gal(b1-4)GlcNAc(b1-3)Gal(b1-4)GlcNAc(b1-3)Gal(b1-4)GlcNAc(b1-2)Man(a1-3)[Neu5Ac(a2-3)Gal(b1-4)GlcNAc(b1-3)Gal(b1-4)GlcNAc(b1-3)Gal(b1-4)GlcNAc(b1-2)Man(a1-6)]GalNAc
Procedure, shortened: as §1

[32] = molecular target: Neu5Ac(a2-3)Gal(b1-4)GlcNAc(b1-3)Gal(b1-4)GlcNAc(b1-3)GalNAc
Procedure, shortened: as §1

[33] = molecular target: Neu5Ac(a2-3)Gal(b1-4)GlcNAc(b1-3)Gal(b1-4)GlcNAc(b1-3)[Neu5Ac(a2-3)Gal(b1-4)GlcNAc(b1-3)Gal(b1-4)GlcNAc(b1-6)]GalNAc
Procedure, shortened: as §1

[34] = molecular target: Neu5Ac(a2-3)Gal(b1-4)GlcNAc(b1-3)Gal(b1-4)GlcNAc(b1-6)[Gal(b1-3)]GalNAc
Procedure, shortened: as §1

[35] = molecular target: Neu5Ac(a2-3)Gal(b1-4)GlcNAc(b1-3)Gal(b1-4)[Fuc(a1-3)]GlcNAc
Procedure, shortened: as §1

[36] = molecular target: Neu5Ac(a2-3)Gal(b1-4)GlcNAc(b1-3)GalNAc
Procedure, shortened: as §1

[37] = molecular target: Neu5Ac(a2-3)Gal(b1-4)GlcNAc(b1-3)[Neu5Ac(a2-3)Gal(b1-4)GlcNAc(b1-6)]GalNAc
Procedure, shortened: as §1

B1: PV12658A-bvu-496-32-496 (Bacteroides vulgatus) (protein)
chain: DLDGAITTPAAVELALNGIYYSLPGNGFNVIFPTVSGSFKAGTMWRQEIVSAGNAVYYSERMLPTLSFSDATEWDADYAVIKNANFLETACNRMSDGEFSGNRRAEVLGEIAYLRALAYFNILVRYCEFWDMNSEYGVVMRNEAPSVSNALKARSSVADSYQYILDQLEIAIEKAPDWKKLSQASKEAAKALKARVLLYAGKYTEAVAAVNDAIDTNSPLPEANYGDVFDKFSTTKEILFARVFDQKDATNTSTRQQCYGNSPTKKQGYWGPTNEYVELVGDDPRADAIFSKVDSLMDSRSSAVAYNLKSVKKLLNDANDMPVIFSRVSELYLIKAEALYRSGASISEAYAPIRKLRERAGAEIILPANNEELETAIFNEWMLELSFENWHEWFAMIRFAGYTEKPDFTRLLALNKTLREALEKEYEKSEAQGDNYYQRIIDRRIDAIPSSEISSNLECKQNPGY
[1]
  glycan array binding signal (z-score): -0.433
[2]
  glycan array binding signal (z-score): 0.621
[3]
  glycan array binding signal (z-score): -0.549
[4]
  glycan array binding signal (z-score): -0.366
[5]
  glycan array binding signal (z-score): -0.374
[6]
  glycan array binding signal (z-score): -0.434
[7]
  glycan array binding signal (z-score): -0.138
[8]
  glycan array binding signal (z-score): 0.152
[9]
  glycan array binding signal (z-score): -0.194
[10]
  glycan array binding signal (z-score): -0.275
[11]
  glycan array binding signal (z-score): -0.107
[12]
  glycan array binding signal (z-score): -0.549
[13]
  glycan array binding signal (z-score): -0.182
[14]
  glycan array binding signal (z-score): -0.429
[15]
  glycan array binding signal (z-score): -0.229
Neu5Ac(a2-3)Gal(b1-4)Glc
  glycan array binding signal (z-score): -0.191
[16]
  glycan array binding signal (z-score): -0.138
[17]
  glycan array binding signal (z-score): -0.265
[18]
  glycan array binding signal (z-score): -0.392
[19]
  glycan array binding signal (z-score): -0.385
[20]
  glycan array binding signal (z-score): 0.246
[21]
  glycan array binding signal (z-score): 0.084
[22]
  glycan array binding signal (z-score): -0.385
[23]
  glycan array binding signal (z-score): -0.362
[24]
  glycan array binding signal (z-score): -0.202
[25]
  glycan array binding signal (z-score): -0.314
[26]
  glycan array binding signal (z-score): 0.014
[27]
  glycan array binding signal (z-score): -0.31
[28]
  glycan array binding signal (z-score): -0.069
[29]
  glycan array binding signal (z-score): 0.962
[30]
  glycan array binding signal (z-score): -0.336
[31]
  glycan array binding signal (z-score): 7.6
[32]
  glycan array binding signal (z-score): -0.414
[33]
  glycan array binding signal (z-score): 0.145
[34]
  glycan array binding signal (z-score): -0.469
[35]
  glycan array binding signal (z-score): -0.353
[36]
  glycan array binding signal (z-score): 0.325
[37]
  glycan array binding signal (z-score): -0.138
